Data taken from article PMC4336329 (PLoS ONE, 2015).
The whole screen tested about 310,000 compounds, of which about 14,000 (4.5%) showed an effect of 50% or more. Effects have a minus sign here. The list shows a part of the results.

Target: human ether-à-go-go-related gene (hERG) potassium channel (human, UniProt Q12809)
Experiment: primary screen, population patch clamp on CHO cells stably expressing hERG
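Further: peak tail current of the secondary pulse compared with the same well before compound.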

Chain of human ether-à-go-go-related gene (hERG) potassium channel (Q12809 whole entry, looked up): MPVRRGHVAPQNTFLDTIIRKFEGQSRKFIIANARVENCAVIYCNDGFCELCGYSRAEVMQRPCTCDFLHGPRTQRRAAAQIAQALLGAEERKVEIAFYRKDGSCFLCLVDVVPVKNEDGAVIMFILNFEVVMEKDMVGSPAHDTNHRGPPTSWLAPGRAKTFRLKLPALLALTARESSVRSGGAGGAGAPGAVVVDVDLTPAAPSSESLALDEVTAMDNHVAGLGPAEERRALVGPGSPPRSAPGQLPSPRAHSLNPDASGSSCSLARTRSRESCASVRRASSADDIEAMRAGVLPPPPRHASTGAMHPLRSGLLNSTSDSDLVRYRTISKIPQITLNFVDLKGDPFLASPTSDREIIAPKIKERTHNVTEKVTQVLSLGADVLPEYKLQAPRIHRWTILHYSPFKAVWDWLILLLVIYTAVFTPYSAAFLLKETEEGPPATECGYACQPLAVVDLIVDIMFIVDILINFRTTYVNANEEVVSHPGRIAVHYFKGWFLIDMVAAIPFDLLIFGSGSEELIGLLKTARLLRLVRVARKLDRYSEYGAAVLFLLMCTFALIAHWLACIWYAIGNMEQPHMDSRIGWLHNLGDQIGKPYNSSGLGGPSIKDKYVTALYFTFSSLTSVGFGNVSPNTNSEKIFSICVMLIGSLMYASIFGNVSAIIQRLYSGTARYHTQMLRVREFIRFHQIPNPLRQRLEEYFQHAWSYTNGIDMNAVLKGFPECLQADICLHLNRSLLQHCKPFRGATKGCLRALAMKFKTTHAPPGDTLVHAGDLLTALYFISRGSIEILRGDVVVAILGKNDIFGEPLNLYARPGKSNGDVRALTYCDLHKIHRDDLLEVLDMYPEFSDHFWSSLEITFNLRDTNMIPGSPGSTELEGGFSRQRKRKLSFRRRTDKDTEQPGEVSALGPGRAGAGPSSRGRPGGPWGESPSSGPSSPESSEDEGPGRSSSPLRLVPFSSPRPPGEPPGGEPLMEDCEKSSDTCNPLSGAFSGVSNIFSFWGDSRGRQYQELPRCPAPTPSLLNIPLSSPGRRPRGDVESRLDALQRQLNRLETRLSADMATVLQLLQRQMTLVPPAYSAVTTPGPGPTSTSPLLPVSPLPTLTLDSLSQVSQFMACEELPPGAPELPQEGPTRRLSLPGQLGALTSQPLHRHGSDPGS

| SMILES | hERG current change (%, negative = inhibition) at 10uM [%] |
| --- | --- |
| O=C(NNC(=O)c1ccc(Cl)c(Cl)c1)c1cccnc1 | 0.538 |
| CCOC(=O)c1csc(NC(=O)c2cc(OC)c(OC)c(OC)c2)n1 | -47.8 |
| O=c1[nH]ncc2c3ccccc3n(Cc3ccccc3F)c12 | 10.1 |
| N#C/C(=C\c1ccc(Sc2ccccc2)o1)c1nc2ccccc2[nH]1 | 0.91 |
| O=C(COC(=O)/C=C/c1cccc(Cl)c1)NCCc1ccc(Cl)cc1Cl | 10.3 |
| COc1ccc(OC)c(CN2CCC(C(=O)N3CCN(c4ccccc4F)CC3)CC2)c1.O=C(O)C(=O)O | -65.3 |
| CCc1ccc(NC(=O)C2=CC(c3ccc(OC)cc3)=NS(=O)(=O)N2C)cc1 | -15.2 |
| COc1ccc(Br)cc1C1Nc2ccccc2C(=O)N1NC(=O)c1ccncc1 (stereo not drawn) | -21 |
| C=CCN(c1ccccc1)S(=O)(=O)c1ccc2c(c1)NC(=O)C(C)S2 (stereo not drawn) | 5.73 |
| Cc1ccccc1N1CCN(C(=O)C2CCCCC2)CC1 | 0.863 |
| CCOc1ccc(OCCOc2ccc(/C=C/C(=O)O)cc2OCC)cc1 | 6.53 |
| COc1ccc(S(=O)(=O)N2CCOCC2)cc1NC(=O)c1cc2c(s1)CCCC2 | -11.4 |
| COc1cc(NC2c3ccccc3C(=O)N2Cc2ccccc2)cc(OC)c1OC (stereo not drawn) | -1.06 |
| Cc1cccc(OCC(=O)NCCN2CCOCC2)c1 | -0.244 |
| Cn1c(Cc2ccccc2)nnc1SCc1nc2ccccc2c(=O)[nH]1 | -1.69 |
| CSCC[C@H](NC(=O)C1CCN(S(=O)(=O)c2ccccc2)CC1)C(=O)NC1CC1 | 18.1 |
| O=C(CSc1nc(-c2ccco2)cc(C(F)(F)F)n1)N1CCN(c2ccc(Cl)cc2)CC1 | 6.11 |
| O=C(COc1ccc(Br)cc1Br)NNC(=O)c1cccs1 | 12 |
| Cc1ccc(N)c2c1OCCC2=O | 20.4 |
| CC1(C)CC(=O)C2=C(C1)NC(=O)CC2c1cc(F)ccc1F (stereo not drawn) | -21.6 |
| COc1ccc([N+](=O)[O-])cc1NC(=O)c1cccs1 | 4.41 |
| Cc1ccc(NC(=O)C(=O)NCCCN2CCCC2=O)cc1 | -7.59 |
| CC(NC(=O)c1cc2cc(F)ccc2[nH]1)c1ccccc1 (stereo not drawn) | 3.52 |
| COc1ccc(NS(=O)(=O)c2cccc(C(=O)NNC(=O)NCCCl)c2)cc1 | 20.3 |
